Out of some 340,000 compounds screened, about 12,000 (3.5%) were called active. The shares of active, inactive and inconclusive entries below differ from those in the screen. Calls come from the whole dose curve; as a rule, active = well fitted inhibition curve with a large enough effect; inconclusive = small, poorly fitted or top-dose-only effect, or another doubt; inactive = no such curve, though single readings can be large or run the other way. No potency is given beside an inconclusive call; the fits are too rough.
Experiment: qHTS Assay for Inhibitors of Hepatitis C Virus (HCV)
Settings: Huh7.5.1 HCVcc-Cre (HCVcc is cell-culture hepatitis C virus) infection, luciferase reporter, 44 h; activity change, negative = inhibition: at 41.8 µM (top of the series) unless noted
Procedure, shortened: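 Infectious HCVcc-Cre (~0.5 moi) was added to cells just after compound, with cells seeded 4 h earlier at 1,000 per well. Luciferase activity after 44 h culture reported infection; substrate was incubated 15 min at room temperature before reading.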
% is set by controls: 0 for no effect and ±100 for the full control effect; potency is the fitted concentration of half-maximal effect; tags give direction and shape of the fitted curve.

SMILES	Potency	activity change, negative = inhibition
Cc1ccc(S(=O)(=O)CC(=O)N2CCN(c3ccc([N+](=O)[O-])cc3)CC2)cc1	inconclusive [inhibitor, single point]	
COc1cc2oc3cc(C#Cc4ccc(N)cc4)ccc3c(=O)c2cc1OC	inconclusive [inhibitor, single point]	
CCC1CN(C(=O)N2CCC(C(=O)Nc3ccccc3OC)CC2)c2ccccc2O1 (stereo not drawn)	inconclusive [inhibitor, partial curve]	
O=C(c1cccs1)N1CCN(c2cc(Cl)ccc2Cl)CC1	inconclusive [inhibitor, single point]	
CC(=O)N1CCSc2ccc(S(=O)(=O)Nc3cccc(C)c3)cc21	active: 14.1 µM	
COc1cc(/C=C2/SC(=Nc3ccc(O)cc3)NC2=O)cc(OC)c1O	inconclusive [inhibitor, partial curve]	
Cc1cc(S(=O)(=O)NCCCn2ccnc2)c(C)cc1Cl		inactive: -3.16%
Cc1nc2ccccn2c1-c1nnco1		inactive: 9.7%
COc1ccc(-c2oc3cccnc3c2-c2ccc(OC)nc2)cc1	inconclusive [inhibitor, single point]	
CC(C)CCNC(=O)CN(Cc1ccc2c(c1)OCO2)C(=O)Cn1nnc(-c2cccs2)n1	inconclusive [inhibitor, full curve, poor fit]	
O=C(N=Nc1c(O)[nH]c2ccc(Br)cc12)c1ccccc1-n1cccc1	active: 17.8 µM	
CC1CCc2sc3nc(NCc4ccco4)n4ncnc4c3c2C1 (stereo not drawn)	inconclusive [inhibitor, single point]	
COc1ccc(Cl)cc1C=CC=Nc1ccc(S(N)(=O)=O)cc1	inconclusive [inhibitor, partial curve]	
O=C(c1cc(COc2ccc(F)cc2Cl)on1)N(Cc1ccncc1)CC1CCCO1 (stereo not drawn)	inconclusive [inhibitor, full curve, poor fit]	
O=C(NC1CCCCCC1)C1CCN(c2nc3ccccc3o2)CC1		inactive: -7.96%
CCCNC(=O)c1ccc(COc2ccc(CCC)cc2OC)o1	inconclusive [inhibitor, single point]	
COC(=O)c1cc(COc2ccc3c(c2)oc(=O)c2ccccc23)c(C)o1	inconclusive [inhibitor, partial curve]	
Clc1cccc(CSc2nnc(-c3c[nH]c4ccccc34)o2)c1	inconclusive [inhibitor, partial curve]	
Cc1ccc(C2Nc3ccc4ccccc4c3C3=C2C(=O)CC(C)(C)C3)o1 (stereo not drawn)	inconclusive [inhibitor, single point]	
CCC(C(=O)NCc1ccccc1OC)n1nc(C)n2c(cc3occc32)c1=O (stereo not drawn)	inconclusive [inhibitor, partial curve]	
Cc1ccccc1OCC(O)CN1CCN(c2ccc(Cl)cc2)CC1 (stereo not drawn)	inconclusive [inhibitor, partial curve]	
Cc1ccc(NC(=O)C2(c3ccccc3)CCOCC2)c([N+](=O)[O-])c1		inactive: -5.69%

SMILES	Potency	activity change, negative = inhibition
COc1ccc(S(=O)(=O)N2CCOCC2)cc1NC(=O)CCNC(=O)c1ccc(Cl)cc1	inconclusive [inhibitor, single point]	
Cc1cccc(C(=O)Nc2ccnc(-c3ccncc3)n2)c1	inconclusive [inhibitor, partial curve]	
Cc1c(-c2nc(-c3ccc(C(C)(C)C)cc3)no2)n(C)oc1=O		inactive: 2.47%
O=C(Cc1ccc(NC(=O)C2CCCN(C(=O)C3CCCC3)C2)cc1)Nc1cccc(C(=O)N2CCCC2)c1 (stereo not drawn)	inconclusive [inhibitor, partial curve]	
Cc1ccc(C)c(N2CCN(C(=S)Nc3ccc4nc(N5CCOCC5)cc(C)c4c3)CC2)c1	inconclusive [inhibitor, full curve, poor fit]	
Nc1nnc(CCS(=O)(=O)c2cc(Cl)ccc2Cl)s1		inactive: 17.8%
O=C(CNC(=O)c1ccccn1)N=Nc1c(O)[nH]c2ccccc12	inconclusive [inhibitor, single point]	
COc1ccc(C(=O)Nc2cccc(-c3nnc(-c4ccco4)o3)c2)cc1	active: 12.6 µM	
Cc1nn(-c2ccccc2)c(C)c1/C=N/NC(=O)c1cc(C(C)(C)C)[nH]n1	inconclusive [inhibitor, partial curve]	
O=C(Nc1ccccc1F)N(CCCN1CCOCC1)Cc1cc2cc3c(cc2[nH]c1=O)OCCO3	inconclusive [inhibitor, partial curve]	
Cc1nc(SCC(=O)Nc2cc(C(N)=O)cc(C(N)=O)c2)c2c(C)c(C)sc2n1		inactive: 2.08%
CCOC(=O)CSc1nc2ccccc2c(=O)n1-c1ccc(C)cn1	inconclusive [inhibitor, partial curve]	
O=C(CCCSc1nnc(Nc2ccccc2F)s1)N1CCOCC1		inactive: 11.7%
CC(=O)Cc1nsc(NC(=O)c2csc3c2CCCC3)n1	inconclusive [inhibitor, partial curve]	
CCn1cc([N+](=O)[O-])c(C(=O)N2N=C(c3cccc4ccccc34)CC2c2ccccc2O)n1 (stereo not drawn)	active: 11.2 µM	
COc1ccc(NC(=O)CN(C)C(=O)c2cc(-c3ccc(OC)cc3)nc3ccccc23)cc1	inconclusive [inhibitor, partial curve]	
Cc1ccc(NC(=O)Nc2ccc3c(c2)nc(C)n3C)cc1	inconclusive [inhibitor, single point]	
CCO[C@H]1OC(C(=O)N2CCN(Cc3ccccc3)CC2)=C[C@@H](c2ccccc2)[C@@H]1CCCO		inactive: -23.1%
C[C@H](NC(=O)C1CCN(S(=O)(=O)c2ccccc2)CC1)C(=O)NCc1cccc(C(F)(F)F)c1		inactive: -27.9%
CC(=O)c1cnc2nc(SCc3ccc(Cl)cc3)nn2c1C	inconclusive [inhibitor, single point]	
O=C(Nc1c(Cl)cccc1Cl)c1cc(-c2ccco2)on1	inconclusive [inhibitor, single point]	

— PubChem BioAssay AID651820 (National Center for Advancing Translational Sciences (NCATS), 2012)
